Data from PMC7819943, “Rice protein-binding microarrays: a tool to detect cis-acting elements near promoter regions in rice”.
Some of the results follow.

biological target: T1, OsWOX13 (Oryza sativa, UniProt Q5QMM3 1-267); assay: protein-binding microarray (RPBM); PBS, 2% BSA, 51.3 ng/ul salmon testes DNA, 50 uM zinc acetate, 200 nM TF, 25 C, 1 h; high values mean tight binding; conditions: protein: recombinant; tags: N-terminal polyhistidine and DsRed monomer fusion (pET32a); label: CyDye5-dUTP incorporated in the synthesized complementary strand; 3' TTTTT single-stranded linker to array surface; dsDNA, one strand shown
T1 sequence: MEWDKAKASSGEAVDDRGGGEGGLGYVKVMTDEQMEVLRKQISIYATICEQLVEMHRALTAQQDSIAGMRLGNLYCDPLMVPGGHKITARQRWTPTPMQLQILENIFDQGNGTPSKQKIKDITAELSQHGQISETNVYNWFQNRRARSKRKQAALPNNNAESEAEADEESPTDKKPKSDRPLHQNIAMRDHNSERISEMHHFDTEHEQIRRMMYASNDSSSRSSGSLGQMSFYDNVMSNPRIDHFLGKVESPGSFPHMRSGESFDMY
Procedure, shortened: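 The binding signal is fluorescence intensity per feature, in arbitrary units, read on an Axon 4000B scanner. Polyhistidine- and DsRed-tagged transcription factors (N-terminal fusions) from E. coli BL21-CodonPlus were purified on Ni–NTA and applied at 200 nM for 1 h at 25 °C to a double-stranded, BSA-blocked custom Agilent array in buffer with 50 µM zinc acetate.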

Row | Sequence | binding signal
1 | AGATTGATGACAAGGATCACTGGTACAGGTTGGGAATTGACGGAGTCACCTAGTGCAG | 4990 fluorescence intensity (a.u.)
2 | CAAAATTATGTAAACCCTAGCTGGCTGTCCGTCCTTCCCCCGGAGTCACCTAGTGCAG | 9450 fluorescence intensity (a.u.)
3 | CTCTAGTTGATGATGGAAATCATTGACAAGAACTATAGCACGGAGTCACCTAGTGCAG | 22100 fluorescence intensity (a.u.)
4 | GACGAAAATTAGATTTATTGGAAAATTAAGGGACCTCAGACGGAGTCACCTAGTGCAG | 14100 fluorescence intensity (a.u.)
5 | AATCTTTGATAGATAGTGCCGTGGAAGGATATTGTAGACACGGAGTCACCTAGTGCAG | 11200 fluorescence intensity (a.u.)
6 | TATTACATGTCAATTTGACATTGTGTTAATAAATAATAAGCGGAGTCACCTAGTGCAG | 5060 fluorescence intensity (a.u.)
7 | ATTGATAATTGGAGGCACCATTGCCTGGCTATGGGCAATTCGGAGTCACCTAGTGCAG | 36900 fluorescence intensity (a.u.)
8 | GCTTGATGGTATTAATAGAAGTCTGCATAATGTGTCTTACCGGAGTCACCTAGTGCAG | 11100 fluorescence intensity (a.u.)
9 | ATTTACTAATGATGGATTAATTATACTTAATAAATTCTTCCGGAGTCACCTAGTGCAG | 17100 fluorescence intensity (a.u.)
10 | GTTGTAAACAAAATTATAATGACTATTCAATTATAGGAGCCGGAGTCACCTAGTGCAG | 8430 fluorescence intensity (a.u.)
11 | AAACTAATTAGTCCGTGATTAGCCATAAGTGCTACAGTAACGGAGTCACCTAGTGCAG | 43100 fluorescence intensity (a.u.)
12 | ACTTCACAAGACTGTTTGCTAATTGAATAATGCTCCTGAGCGGAGTCACCTAGTGCAG | 17500 fluorescence intensity (a.u.)
13 | AACATGAGTAATATCAATTATTTGGGTCCAATCCAAACTACGGAGTCACCTAGTGCAG | 3540 fluorescence intensity (a.u.)
14 | TGATCAATTTGATCACGTTTGGTCCGGATTGCTAGTGAAACGGAGTCACCTAGTGCAG | 7280 fluorescence intensity (a.u.)
15 | TGTAATTACACTGTCGTGATATCAATATTACACCACAGTTCGGAGTCACCTAGTGCAG | 24600 fluorescence intensity (a.u.)
16 | CTGTGAACTGAATGCGATTGATGCGCACGTACCACGTACACGGAGTCACCTAGTGCAG | 4830 fluorescence intensity (a.u.)
17 | GTAATTGTCATTCTCCCTCCACCTTCGTACTTCTCCAGTCCGGAGTCACCTAGTGCAG | 4530 fluorescence intensity (a.u.)
18 | GCTATTTAATTTAGACTGGGTGGAAAGGGTAGGAGGGTTGCGGAGTCACCTAGTGCAG | 20200 fluorescence intensity (a.u.)
19 | GTTTAGAATCTAATTGACACGTCCACCCAAATTTAGAGACCGGAGTCACCTAGTGCAG | 17000 fluorescence intensity (a.u.)
20 | ATCTAAATTGTTTTAGATTTGTGCACAAGAACAAAAGAGACGGAGTCACCTAGTGCAG | 16800 fluorescence intensity (a.u.)
21 | GCAGCCTAGATTGACAATAGATGAATTGGAGCTAGTAGTGCGGAGTCACCTAGTGCAG | 35400 fluorescence intensity (a.u.)

Row | Sequence | binding signal
22 | ACTAATTGGGGCTACAATAAAATCAAGTGGTAGTAAACTTCGGAGTCACCTAGTGCAG | 17700 fluorescence intensity (a.u.)
23 | GGTAAACATATAATCAACAAAATTGAATGTACAAGTGGATCGGAGTCACCTAGTGCAG | 23000 fluorescence intensity (a.u.)
24 | TTGCTTTGATTATGTGATGTAGCGAATGCCCGAAAAGGATCGGAGTCACCTAGTGCAG | 8490 fluorescence intensity (a.u.)
25 | GGAATAGGTATAGATGATTGAAGGAGGGTTGTAATTAGTGCGGAGTCACCTAGTGCAG | 27600 fluorescence intensity (a.u.)
26 | CCCAAACGCCCTGAAATCAAATTGAATATTCCAATTTGCACGGAGTCACCTAGTGCAG | 4630 fluorescence intensity (a.u.)
27 | CAATTAATTCTTTGATCGTTTCTTTCCTCCTAACAACTGTCGGAGTCACCTAGTGCAG | 3580 fluorescence intensity (a.u.)
28 | GATGATGATATGATTCTTTTCCTTTTCCCTGCTGTGCATCCGGAGTCACCTAGTGCAG | 9110 fluorescence intensity (a.u.)
29 | CTATCTAGATTTGTTGTACTAGATTATATCCCATCGAAGTCGGAGTCACCTAGTGCAG | 3970 fluorescence intensity (a.u.)
30 | TCAAATTGAAATTCGAATTCAAATATTTTATATTTTCCTCCGGAGTCACCTAGTGCAG | 22400 fluorescence intensity (a.u.)
31 | CATACAATTAACAATAACTGAATTGAAGAGGCATATTCTACGGAGTCACCTAGTGCAG | 26700 fluorescence intensity (a.u.)
32 | AAATTAGCTAATATTTAATTAATCACGTATTAATGGACCGCGGAGTCACCTAGTGCAG | 10300 fluorescence intensity (a.u.)
33 | ACATAATTGTTTACGTACTGGCTGCCAATTAAGTTAAGTCCGGAGTCACCTAGTGCAG | 35400 fluorescence intensity (a.u.)
34 | TTTTCTGTCTATTTGGTTAACCGAAGAGACTAACCGAATTCGGAGTCACCTAGTGCAG | 3440 fluorescence intensity (a.u.)
35 | GAAGATTTAAATTTTGACTTATAAGCCTAAGTGAAAAGATCGGAGTCACCTAGTGCAG | 10500 fluorescence intensity (a.u.)
36 | CCCAATGCTAAATCAAATGATTGCTGACACTGAACAAAATCGGAGTCACCTAGTGCAG | 11900 fluorescence intensity (a.u.)
37 | AATTAAAATTATAAATCAATAACTTAGTTAGCTAACTATGCGGAGTCACCTAGTGCAG | 26400 fluorescence intensity (a.u.)
38 | GCATTAATGTCTGGATTGAGTGCTGCCTTGTACATGTCTCCGGAGTCACCTAGTGCAG | 3950 fluorescence intensity (a.u.)
39 | ATAAAATGTTAAGGACTAAATTGATCATTAAATAAAAGTTCGGAGTCACCTAGTGCAG | 17000 fluorescence intensity (a.u.)
40 | CCCTTCTTAATTGCCCCAACTGTTTGTTTCCTGATTTGATCGGAGTCACCTAGTGCAG | 23900 fluorescence intensity (a.u.)
41 | GTGTAGGCCTTGATTGGGCCGAAGCAAATCTCACCGTAACCGGAGTCACCTAGTGCAG | 10500 fluorescence intensity (a.u.)
42 | ATCTATCTATCATCAAGCTGATCATCCATACTTGTTGATCCGGAGTCACCTAGTGCAG | 4970 fluorescence intensity (a.u.)
